Values joined by “and” are separate entries in the source; they are usually repeats but may differ in a detail not shown here. Equal values may be shown once. About 1,200 (2.5%) of roughly 48,000 compounds were called active. About 2% were inconclusive and are not listed.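 The calls were made as follows: active = activation of at least 60% and not above a set upper limit (about 1 call in 100 departs from these limits); inconclusive = activation of 40% to 60%, or above that upper limit; inactive = activation under 40%.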 This is one part of the list.
Target: Probable G-protein coupled receptor 32 (Homo sapiens) (UniProt O75388)
Sequence of UniProt O75388 (O75388 whole entry, looked up): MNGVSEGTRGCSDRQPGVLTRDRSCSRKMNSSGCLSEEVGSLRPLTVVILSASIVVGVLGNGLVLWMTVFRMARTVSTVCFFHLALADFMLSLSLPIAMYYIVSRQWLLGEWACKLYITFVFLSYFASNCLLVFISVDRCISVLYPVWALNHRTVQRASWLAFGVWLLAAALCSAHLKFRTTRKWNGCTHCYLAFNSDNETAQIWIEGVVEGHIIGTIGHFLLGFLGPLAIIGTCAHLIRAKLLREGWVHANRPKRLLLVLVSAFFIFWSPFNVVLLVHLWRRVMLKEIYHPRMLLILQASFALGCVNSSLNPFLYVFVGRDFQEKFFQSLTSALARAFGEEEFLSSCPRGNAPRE
Experiment: qHTS for Agonists of Human Resolvin D1 Receptor DRV1
Conditions: CHO-K1 GPR32 beta-arrestin PathHunter luminescence, 90 min; at 76.9 µM; active compounds read high; zero percent set by DMSO-only wells
Method in brief: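 Beta-arrestin recruitment read-out: luminescence from complemented beta-Gal in CHO-K1 GPR32 PathHunter cells, measured 1 h after detection reagent at ambient temperature following 90 min compound exposure at 37 °C; DMSO served as basal (EC0) control.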

activation, inactive:
CC(=O)Nc1ccc(C(=O)CSc2nnc(-c3ccccc3)n2-c2ccccc2)cc1 24.1%
Cc1ccc(NC2=C(c3ccc(C(F)(F)F)cc3)C(=O)c3ccccc32)cc1C -31.7%
Cc1ccc(OCCn2c(-c3ccc(Cl)cc3)nc3ccccc3c2=O)c(C)c1 -0.456%
CCCN(C(=O)c1cc2c(Cl)nc3ccccc3c2s1)c1cccc(C)c1 11.7%
COCCNC(=O)c1ccc(Cn2c(SCC(=O)NC(C)C)nc3ccccc3c2=O)cc1 7.97%
CCCN(CCC)C(=O)Cn1c(=O)n(Cc2ccc(C(=O)NCCc3ccc(OC)c(OC)c3)cc2)c(=O)c2ccccc21 0.262%
CCOc1cc(CNc2ccc(O)cc2)cc(Br)c1OCc1ccccc1 -25.7%
CCOc1ccccc1N(C)C(=O)c1nn(-c2ccc(C)cc2)c(=O)c2c1c1ccccc1n2C -1.01%
COc1cc(C=O)ccc1O 22.9%
COc1ccc(-c2cc3nc(C4CCN(C(=O)OC(C)(C)C)CC4)c(C(=O)Nc4cc(Cl)cc(Cl)c4)cn3n2)cc1 -7.55%
COc1ccc(CNC(=O)c2ccc3c(c2)N(Cc2ccccc2)C(=O)c2ccccc2S3(=O)=O)cc1 -30.3%
COc1ccc(-n2c(SCC(=O)N3CCC(C)CC3)nc3c([nH]c4ccccc43)c2=O)cc1 -2.4%
CC1=C(C(=O)Nc2ccc(C)cc2C)C(c2sccc2C)n2ncnc2N1 (stereo not given) -6.09%
COc1ccc(OC)c(NC(=O)c2csnn2)c1 -8.99%
COCCCNC(=O)c1cc(-c2cccnc2)nc2ccccc12 5.24%
CCOc1ccccc1-c1nnc(SCc2ccc(Cl)cc2)o1 -28.5%
CCOc1cccc(C2c3c(oc4ccccc4c3=O)C(=O)N2c2nc(C)c(C(=O)OC)s2)c1 (stereo not given) 1.39%
COc1ccc2cccc(CCNC(C)=O)c2c1 1.56%
O=C(Nc1nnc(S(=O)(=O)N2CCCc3ccccc32)s1)c1ccccc1Br 18.6%
O=C(COc1ccccc1F)Nc1ccc(C(=O)OCc2cc(=O)n3nc(C4CC4)sc3n2)cc1 -0.59%
CN(Cc1ccccc1)c1nc(-c2ccc(F)cc2)cc(C(F)(F)F)n1 -18.8%
Cc1ccn2c(c1)nc(=O)c1cc(S(=O)(=O)N3CCC(C)CC3)c(Cl)cc12 -21.1%
CCCCN(C)CCNC(=O)c1cc(-c2cccnc2)nc2ccc(S(=O)(=O)N3CCC(C)CC3)cc12 -12.3%
O=C(Nc1ccc(Cl)cc1Cl)c1cc(S(=O)(=O)N2CCN(c3ccccc3F)CC2)ccc1F -10.5%
CCc1ccc(-n2c(C)nnc2SCc2nc(-c3ccc(OC)cc3)no2)cc1 -2.74%
Cc1ccc(-c2cc3ncc(C(=O)c4cc([N+](=O)[O-])ccc4O)cn3n2)cc1 18.2%
Cc1ccc(NC(=O)CCSCCc2ccccn2)cc1 -15.8%
CCC(C(=O)Nc1cccc(-c2cn3cccnc3n2)c1)c1ccccc1 (stereo not given) 29.4%
CC1=C(C)C(=O)C(CCCCC#CCCCC#CCO)=C(C)C1=O -2.17% and -0.657%
COc1ccc(Br)cc1CNC(=O)CCCn1c(=O)c2cccn2c2ccccc21 -29.5%
CCC(Oc1ccccc1F)C(=O)Nc1c(C(=O)c2ccccc2)oc2ccccc12 (stereo not given) -28.2%
CC(C)(C)OC(=O)N1CCC(c2c(C(=O)NCc3ccc4c(c3)OCO4)cnn2-c2ccc(F)cc2F)CC1 -10%
O=C(Nc1ccc(Cl)cc1)C1CCN(c2nc3ccccc3n3cccc23)CC1 -21.8%
CC(C)NCC(O)c1ccc(NS(C)(=O)=O)cc1 (stereo not given) 4.77%
CN(C)c1ccc(C(CNS(=O)(=O)c2ccc(Cl)cc2)N2CCCC2)cc1 (stereo not given) -14.6%
COc1ccc(CCNC(=O)NCc2noc3ccccc23)c(OC)c1 -4.07%
CC1=C(C(=O)Nc2ccc(C)cc2C)C(c2ccccc2C)n2ncnc2N1 (stereo not given) -5.89%
COc1cccc(-c2nnc3n(Cc4ccc(F)cc4)c(=O)c4ccccc4n23)c1 -5.99%
Cc1nn(-c2ccc3nncn3n2)c(C)c1CCC(=O)Nc1ccc(OC(F)(F)F)cc1 -8.61%
Cc1ccc(-c2noc(CN(C3CCCCC3)S(=O)(=O)c3ccc(C)cc3)n2)cc1 -19.2%
COc1cc(NC(=O)c2noc3c2CCc2ccccc2-3)cc(OC)c1OC 19.9%
Cc1cccc(-c2nc3c(C#N)c[nH]n3c2NC2CCCCC2)c1 -15.2%
COc1cc(C(=O)NCC(c2cccnc2)N2CCN(c3ccc(F)cc3)CC2)cc(OC)c1OC (stereo not given) -4.65%
Cc1ccccc1CNC(=O)c1ccc(-n2c(C)cc3c2CCCC3)cc1 6.26%
COc1ccccc1CNC(=O)C1CCN(Cc2nc(-c3ccc(OC)c(OC)c3)oc2C)CC1 -14.5%
CC(N)(Cc1ccc(O)cc1)C(=O)O (stereo not given) -0.833%
Cc1ccc(Cl)cc1NC(=O)Cn1nc2c(cc1=O)CC(C)CC2 (stereo not given) 2.41%
CCOc1ccc(NC(=O)CN2C(=O)COc3ccc(S(=O)(=O)Nc4ccccc4)cc32)cc1 -6.11%
Cc1ccc(OCCSc2nc3ccccc3n2CC(=O)N2CCOCC2)c(C)c1 12%
COc1ccc(C(=O)Nc2ccc3nc4n(c(=O)c3c2)CCCCC4)cc1OC 11.1%
O=C(NNc1ncnc2c1cnn2-c1ccccc1)c1cccc(Cl)c1 24.9%
CCC(=O)N1CCc2cc(Br)cc(S(=O)(=O)N3CCC(C(=O)NC(C)(C)C)CC3)c21 -7.37%
COc1ccc(C(=O)NCc2nnnn2-c2ccc(C)c(C)c2)cc1 -13.7%
COc1ccc(Cl)c(Cn2c(NCCN)nc3c2c(=O)n(C)c(=O)n3C)c1 -19.7%
CC(C)Cn1c(=O)c2ccccc2n2c(-c3cccc(Cl)c3)nnc12 -0.202%
CCc1ccccc1NC(=O)CSc1nnc(-c2nonc2NC(C)=O)n1C -15%
CCOc1ccc(NC(=O)N2CCOc3ccccc32)cc1 -22%
N#Cc1ccc(-c2cccs2)nc1SCc1ccc(Cl)cc1Cl 5.16%
Cc1ccc(Cl)cc1Nc1nc2ccccc2n2c(C)nnc12 -4.31%
CCCOc1ccccc1Cn1c(=O)sc2ccccc21 -21.7%
CCCCc1nn2c(=O)cc(COC(=O)c3ccccc3NC(=O)C(C)(C)C)nc2s1 2.13%
CN(CCOc1ccc(NS(C)(=O)=O)cc1)CCc1ccc(NS(C)(=O)=O)cc1 -18.1%
CCOC(=O)c1ccc(NC(=O)CN2C(=O)c3cccnc3Oc3ccc(Cl)cc32)cc1 -19.1%
Cc1ccc(N2CCn3c2nc2c3c(=O)n(CCc3ccccc3)c(=O)n2C)cc1C -6.18%
Cc1[nH]c(=O)[nH]c(=O)c1C1N2CC3(C(C)C)CN1CC(C(C)C)(C2)C3=O (stereo not given) -3.2%
Cc1nc2sc(C(=O)NCc3ccc(Cl)cc3)c(NC(=O)c3ccccc3)c2c(C)c1C -1.18%
Cc1ccc(CNC(=O)CCCCn2c(=O)c3ccccc3n(Cc3ccc(Cl)cc3)c2=O)cc1 -5.88%
Cc1ccc(-n2ncc(C(=O)Nc3ccc(C)c(F)c3)c2C2CCN(C(=O)OC(C)(C)C)CC2)cc1C -7.27%
CCOc1cc(C2c3c(oc4ccccc4c3=O)C(=O)N2Cc2ccc3c(c2)OCO3)ccc1O (stereo not given) 13.2%
Cc1ccc(NC(=O)Cn2c(CCC(=O)O)ccc2-c2cccs2)cc1 -22.7%
COc1cccc(N2CCN(c3nc4ccc(C(=O)c5ccccc5)cc4n4c(C)nnc34)CC2)c1 -11.5%
CCC(C(=O)OCc1cc(=O)n2nc(CCOC)sc2n1)c1ccccc1 (stereo not given) -13.3%
Cc1ccccc1NC(=O)c1nc(-c2ccncc2)no1 0.996%
COC(=O)C(C)Sc1nc2c([nH]c3ccccc32)c(=O)n1-c1ccc(OC)cc1 (stereo not given) 7.61%
Cc1cc(C)c2c(=O)cc(C(=O)Nc3ccc(S(=O)(=O)Nc4nc(C)cc(C)n4)cc3)oc2c1 -6.81%
Cc1ccc(-c2cn3c(n2)sc2cc(C(=O)N4CCCCC4)ccc23)cc1 6.06%
Cc1ccc(NC(=O)NCc2cccn2Cc2ccccc2)cc1F -8.83%
O=C(Nc1ccc2nc(SCC(=O)N3CCCC3)sc2c1)c1ccc(F)cc1 -4.15%
CCOc1ccccc1NC(=O)Cn1c(=O)n(Cc2ccccc2)c(=O)c2c(C)c(C(=O)N(C)C)sc21 -24.5%
CCN(CC)C(=O)CSc1nc2cc3c(cc2c(=O)n1Cc1ccc(C(=O)NCCc2ccc(OC)c(OC)c2)cc1)OCO3 -23.8%
COc1cc(Cl)c(C)cc1NC(=O)c1cn(CC(C)C)c(=O)c2cc(OC)c(OC)cc12 7.68%
COc1ccc(CNC(=O)CCCn2c(SCC(N)=O)nc3cc4c(cc3c2=O)OCO4)cc1 -12.3%
Cc1cc(Nc2cccc(Cl)c2C)n2nc(Cc3ccccc3)nc2n1 -3.99%
CC(NC(=O)c1ccccc1)c1nc2ccccc2n1Cc1ccc(Cl)cc1 (stereo not given) -19.5%
COc1ccc(CNC(=O)c2cnn3c(C)c(Cc4ccc(F)cc4)c(C)nc23)cc1 -3.03%

Source: PubChem BioAssay AID1346428 (National Center for Advancing Translational Sciences (NCATS), 2018)
